Experiment [1] addresses endogenous TSG101 from HEK293 cell lysate (human (endogenous in HEK293)) (UniProt Q99816). The experiment can be described thus: SEC; HEK293 cell lysate, endogenous proteins; elution close to the 440 kDa marker (Figure S1B). (In general: In gel filtration, larger molecules generally elute earlier.)
Experiment [2] has as its target GST-TSG101 (human) (UniProt Q99816). As to the kind of experiment: pull-down; 293T cells transfected with GST-TSG101, Myc-VPS28, HA-VPS37A and HA-UBAP1 (WT or M1 to M4); glutathione-coated beads; western blot with anti-HA. A general note: In western blotting, separated proteins are transferred to a membrane and probed.
Experiment [3] has the same target. The experiment can be described thus: pull-down; 293T cells transfected with GST-TSG101, Myc-VPS28, HA-VPS37B and HA-UBAP1 (WT or M1 to M4); glutathione-coated beads; western blot with anti-HA.
The target in experiment [4] is One-Strep tagged TSG101 (OSHA-TSG101) (human) (UniProt Q99816). As to the kind of experiment: pull-down; lysate of cells stably expressing OSHA-TSG101 at endogenous levels; affinity purification on a Strep-Tactin matrix; western blot with anti-TSG101, anti-VPS37A and anti-UBAP1; empty vector (OSHA) cells as control.
In experiment [5] the target is GST-TSG101 (human) (UniProt Q99816). As to the kind of experiment: condition: only with HA-VPS37B cotransfected in place of HA-VPS37A; pull-down; 293T cells transfected with GST-TSG101, Myc-VPS28, HA-VPS37B and HA-UBAP1 (WT or M1 to M4); glutathione-coated beads; western blot with anti-HA.

These are yes or no findings as the source states them, for the method shown. For part of these data: Binding seen in cells or lysates may run through a third protein. Some entries that bind do so weakly or less than the wild type. For part of these data: Where a sequence is shown, tags or fusion partners need not be part of it.

B1: endogenous UBAP1 from HEK293 cell lysate (protein, UniProt Q9NZ09 1-502)
chain: MASKKLGADFHGTFSYLDDVPFKTGDKFKTPAKVGLPIGFSLPDCLQVVREVQYDFSLEKKTIEWAEEIKKIEEAEREAECKIAEAEAKVNSKSGPEGDSKMSFSKTHSTATMPPPINPILASLQHNSILTPTRVSSSATKQKVLSPPHIKADFNLADFECEEDPFDNLELKTIDEKEELRNILVGTTGPIMAQLLDNNLPRGGSGSVLQDEEVLASLERATLDFKPLHKPNGFITLPQLGNCEKMSLSSKVSLPPIPAVSNIKSLSFPKLDSDDSNQKTAKLASTFHSTSCLRNGTFQNSLKPSTQSSASELNGHHTLGLSALNLDSGTEMPALTSSQMPSLSVLSVCTEESSPPNTGPTVTPPNFSVSQVPNMPSCPQAYSELQMLSPSERQCVETVVNMGYSYECVLRAMKKKGENIEQILDYLFAHGQLCEKGFDPLLVEEALEMHQCSEEKMMEFLQLMSKFKEMGFELKDIKEVLLLHNNDQDNALEDLMARAGAS
Take B1: the binding entry in experiment [1] was “binds”.

B2: HA-UBAP1 mutant M1 (L17D18D19/AAA) (protein, UniProt Q9NZ09 1-502)
chain: MASKKLGADFHGTFSYAAAVPFKTGDKFKTPAKVGLPIGFSLPDCLQVVREVQYDFSLEKKTIEWAEEIKKIEEAEREAECKIAEAEAKVNSKSGPEGDSKMSFSKTHSTATMPPPINPILASLQHNSILTPTRVSSSATKQKVLSPPHIKADFNLADFECEEDPFDNLELKTIDEKEELRNILVGTTGPIMAQLLDNNLPRGGSGSVLQDEEVLASLERATLDFKPLHKPNGFITLPQLGNCEKMSLSSKVSLPPIPAVSNIKSLSFPKLDSDDSNQKTAKLASTFHSTSCLRNGTFQNSLKPSTQSSASELNGHHTLGLSALNLDSGTEMPALTSSQMPSLSVLSVCTEESSPPNTGPTVTPPNFSVSQVPNMPSCPQAYSELQMLSPSERQCVETVVNMGYSYECVLRAMKKKGENIEQILDYLFAHGQLCEKGFDPLLVEEALEMHQCSEEKMMEFLQLMSKFKEMGFELKDIKEVLLLHNNDQDNALEDLMARAGAS
Turning to B2, the binding entry in the experiment with GST-TSG101 (human) [2] and with GST-TSG101 (human) [3] was “no binding” throughout.

B3: endogenous UBAP1 of the OSHA-TSG101 cell line (protein, UniProt Q9NZ09 1-502)
chain: MASKKLGADFHGTFSYLDDVPFKTGDKFKTPAKVGLPIGFSLPDCLQVVREVQYDFSLEKKTIEWAEEIKKIEEAEREAECKIAEAEAKVNSKSGPEGDSKMSFSKTHSTATMPPPINPILASLQHNSILTPTRVSSSATKQKVLSPPHIKADFNLADFECEEDPFDNLELKTIDEKEELRNILVGTTGPIMAQLLDNNLPRGGSGSVLQDEEVLASLERATLDFKPLHKPNGFITLPQLGNCEKMSLSSKVSLPPIPAVSNIKSLSFPKLDSDDSNQKTAKLASTFHSTSCLRNGTFQNSLKPSTQSSASELNGHHTLGLSALNLDSGTEMPALTSSQMPSLSVLSVCTEESSPPNTGPTVTPPNFSVSQVPNMPSCPQAYSELQMLSPSERQCVETVVNMGYSYECVLRAMKKKGENIEQILDYLFAHGQLCEKGFDPLLVEEALEMHQCSEEKMMEFLQLMSKFKEMGFELKDIKEVLLLHNNDQDNALEDLMARAGAS
As to B3, the binding entry in experiment [4] is on record as “binds”.

B4: HA-UBAP1 mutant M3 (F28A) (protein, UniProt Q9NZ09 1-502)
chain: MASKKLGADFHGTFSYLDDVPFKTGDKAKTPAKVGLPIGFSLPDCLQVVREVQYDFSLEKKTIEWAEEIKKIEEAEREAECKIAEAEAKVNSKSGPEGDSKMSFSKTHSTATMPPPINPILASLQHNSILTPTRVSSSATKQKVLSPPHIKADFNLADFECEEDPFDNLELKTIDEKEELRNILVGTTGPIMAQLLDNNLPRGGSGSVLQDEEVLASLERATLDFKPLHKPNGFITLPQLGNCEKMSLSSKVSLPPIPAVSNIKSLSFPKLDSDDSNQKTAKLASTFHSTSCLRNGTFQNSLKPSTQSSASELNGHHTLGLSALNLDSGTEMPALTSSQMPSLSVLSVCTEESSPPNTGPTVTPPNFSVSQVPNMPSCPQAYSELQMLSPSERQCVETVVNMGYSYECVLRAMKKKGENIEQILDYLFAHGQLCEKGFDPLLVEEALEMHQCSEEKMMEFLQLMSKFKEMGFELKDIKEVLLLHNNDQDNALEDLMARAGAS
Take B4: the binding entry with GST-TSG101 (human) [2] and with GST-TSG101 (human) [3] was “binds” each time.

B5: HA-UBAP1 mutant M4 (E59A) (protein, UniProt Q9NZ09 1-502)
chain: MASKKLGADFHGTFSYLDDVPFKTGDKFKTPAKVGLPIGFSLPDCLQVVREVQYDFSLAKKTIEWAEEIKKIEEAEREAECKIAEAEAKVNSKSGPEGDSKMSFSKTHSTATMPPPINPILASLQHNSILTPTRVSSSATKQKVLSPPHIKADFNLADFECEEDPFDNLELKTIDEKEELRNILVGTTGPIMAQLLDNNLPRGGSGSVLQDEEVLASLERATLDFKPLHKPNGFITLPQLGNCEKMSLSSKVSLPPIPAVSNIKSLSFPKLDSDDSNQKTAKLASTFHSTSCLRNGTFQNSLKPSTQSSASELNGHHTLGLSALNLDSGTEMPALTSSQMPSLSVLSVCTEESSPPNTGPTVTPPNFSVSQVPNMPSCPQAYSELQMLSPSERQCVETVVNMGYSYECVLRAMKKKGENIEQILDYLFAHGQLCEKGFDPLLVEEALEMHQCSEEKMMEFLQLMSKFKEMGFELKDIKEVLLLHNNDQDNALEDLMARAGAS
With B5, the binding entry is on record as “binds” with GST-TSG101 (human) [2] and “no binding” with GST-TSG101 (human) [5].

B6: HA-UBAP1 wild-type (WT) (protein, UniProt Q9NZ09 1-502)
chain: MASKKLGADFHGTFSYLDDVPFKTGDKFKTPAKVGLPIGFSLPDCLQVVREVQYDFSLEKKTIEWAEEIKKIEEAEREAECKIAEAEAKVNSKSGPEGDSKMSFSKTHSTATMPPPINPILASLQHNSILTPTRVSSSATKQKVLSPPHIKADFNLADFECEEDPFDNLELKTIDEKEELRNILVGTTGPIMAQLLDNNLPRGGSGSVLQDEEVLASLERATLDFKPLHKPNGFITLPQLGNCEKMSLSSKVSLPPIPAVSNIKSLSFPKLDSDDSNQKTAKLASTFHSTSCLRNGTFQNSLKPSTQSSASELNGHHTLGLSALNLDSGTEMPALTSSQMPSLSVLSVCTEESSPPNTGPTVTPPNFSVSQVPNMPSCPQAYSELQMLSPSERQCVETVVNMGYSYECVLRAMKKKGENIEQILDYLFAHGQLCEKGFDPLLVEEALEMHQCSEEKMMEFLQLMSKFKEMGFELKDIKEVLLLHNNDQDNALEDLMARAGAS
Consider B6, for which the binding result with GST-TSG101 (human) [2] and with GST-TSG101 (human) [3] was “binds” throughout.

B7: HA-UBAP1 mutant M2 (V20P21F22/AAA) (protein, UniProt Q9NZ09 1-502)
chain: MASKKLGADFHGTFSYLDDAAAKTGDKFKTPAKVGLPIGFSLPDCLQVVREVQYDFSLEKKTIEWAEEIKKIEEAEREAECKIAEAEAKVNSKSGPEGDSKMSFSKTHSTATMPPPINPILASLQHNSILTPTRVSSSATKQKVLSPPHIKADFNLADFECEEDPFDNLELKTIDEKEELRNILVGTTGPIMAQLLDNNLPRGGSGSVLQDEEVLASLERATLDFKPLHKPNGFITLPQLGNCEKMSLSSKVSLPPIPAVSNIKSLSFPKLDSDDSNQKTAKLASTFHSTSCLRNGTFQNSLKPSTQSSASELNGHHTLGLSALNLDSGTEMPALTSSQMPSLSVLSVCTEESSPPNTGPTVTPPNFSVSQVPNMPSCPQAYSELQMLSPSERQCVETVVNMGYSYECVLRAMKKKGENIEQILDYLFAHGQLCEKGFDPLLVEEALEMHQCSEEKMMEFLQLMSKFKEMGFELKDIKEVLLLHNNDQDNALEDLMARAGAS
With B7, the binding entry with GST-TSG101 (human) [2] and with GST-TSG101 (human) [3] was “no binding” each time.

The record behind these values is publication PMC3314968.
